In PMC4336329 (PLoS ONE, 2015):
Among all 310,000 compounds or so, about 14,000 (4.5%) showed an effect of 50% or more. Effects have a minus sign here. This is one part of the list.

Target: human ether-à-go-go-related gene (hERG) potassium channel (human, UniProt Q12809)
Test: primary screen, population patch clamp on CHO cells stably expressing hERG
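Further: peak tail current of the secondary pulse compared with the same well before compound.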

Sequence of human ether-à-go-go-related gene (hERG) potassium channel (Q12809 whole entry, looked up): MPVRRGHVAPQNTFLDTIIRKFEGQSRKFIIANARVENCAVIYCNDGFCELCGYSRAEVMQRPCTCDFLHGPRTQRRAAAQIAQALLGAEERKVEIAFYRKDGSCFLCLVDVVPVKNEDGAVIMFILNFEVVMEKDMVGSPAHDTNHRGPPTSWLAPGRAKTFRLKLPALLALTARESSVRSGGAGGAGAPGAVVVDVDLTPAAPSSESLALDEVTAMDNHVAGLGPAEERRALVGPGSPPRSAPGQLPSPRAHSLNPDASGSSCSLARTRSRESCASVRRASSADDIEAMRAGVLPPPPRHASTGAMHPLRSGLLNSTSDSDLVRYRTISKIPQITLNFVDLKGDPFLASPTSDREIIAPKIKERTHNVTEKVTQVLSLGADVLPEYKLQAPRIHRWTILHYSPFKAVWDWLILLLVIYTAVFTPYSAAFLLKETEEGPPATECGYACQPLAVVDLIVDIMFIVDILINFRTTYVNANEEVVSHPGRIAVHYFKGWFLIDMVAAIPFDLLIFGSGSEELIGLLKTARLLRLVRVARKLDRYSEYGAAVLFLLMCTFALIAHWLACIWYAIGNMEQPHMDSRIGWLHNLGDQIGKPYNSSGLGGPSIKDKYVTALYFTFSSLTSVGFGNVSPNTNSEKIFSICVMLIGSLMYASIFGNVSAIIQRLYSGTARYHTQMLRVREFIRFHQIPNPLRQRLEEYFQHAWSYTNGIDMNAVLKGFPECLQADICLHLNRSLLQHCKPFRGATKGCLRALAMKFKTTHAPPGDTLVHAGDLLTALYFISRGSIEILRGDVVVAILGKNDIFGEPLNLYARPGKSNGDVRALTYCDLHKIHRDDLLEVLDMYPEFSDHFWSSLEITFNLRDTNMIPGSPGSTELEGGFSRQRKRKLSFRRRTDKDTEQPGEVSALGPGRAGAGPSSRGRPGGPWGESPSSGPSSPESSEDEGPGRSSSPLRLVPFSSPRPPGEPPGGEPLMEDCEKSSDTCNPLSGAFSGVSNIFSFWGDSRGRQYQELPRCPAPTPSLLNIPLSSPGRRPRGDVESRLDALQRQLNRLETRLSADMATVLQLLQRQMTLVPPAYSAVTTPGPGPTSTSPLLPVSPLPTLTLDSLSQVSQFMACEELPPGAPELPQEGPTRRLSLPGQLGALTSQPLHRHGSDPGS

Which “hERG current change (%, negative = inhibition) at 10uM” value does the source give for `Cc1ccc(-n2ncc(-c3nnc(SCC(=O)NC4CCCC4)o3)c2N)cc1C` here?
The value was -8.5%.

With `CC(C(=O)N1c2ccccc2Sc2ccccc21)n1nnc(-c2cccs2)n1` (stereo not drawn) as the compound, how does the “hERG current change (%, negative = inhibition) at 10uM” value read?
Its value is 4.01%.

Which “hERG current change (%, negative = inhibition) at 10uM” value does the source give for `O=S(=O)(Cc1ccccc1Cl)NCc1ccccc1` here?
Its value is 7.02%.

How did the “hERG current change (%, negative = inhibition) at 10uM” value turn out when `CCc1noc(C)c1C(=O)OCC(=O)NCc1ccccc1OC` was run?
Its value is 13.9%.

Which “hERG current change (%, negative = inhibition) at 10uM” value does the source give for `Cc1csc(NC(=O)C(C)Oc2ccc(Cl)cc2C)n1` (stereo not drawn) here?
Its value is -21%.

Which “hERG current change (%, negative = inhibition) at 10uM” value does the source give for `Cc1ccc(Cl)cc1NC(=S)N(CCCN1CCN(C)CC1)Cc1ccco1` here?
The value was -52.3%.

With `CCOC(=O)C(=O)c1c(-c2ccc(C)cc2)nc2ccccn12` as the compound, how does the “hERG current change (%, negative = inhibition) at 10uM” value read?
The value was 2.21%.

`Cc1ccc(NC(=O)COC(=O)Cn2cnc3ccccc32)c([N+](=O)[O-])c1` was tested. Which “hERG current change (%, negative = inhibition) at 10uM” value did it give?
Its value is 13.7%.

How did the “hERG current change (%, negative = inhibition) at 10uM” value turn out when `COc1ccc2cc(C(=O)N3CCN(c4ccccc4F)CC3)[nH]c2c1` was run?
Its value is 13.6%.

`CCc1cccc(C)c1NC(=O)COC(=O)CNS(=O)(=O)/C=C/c1ccccc1` was tested. Which “hERG current change (%, negative = inhibition) at 10uM” value did it give?
The value was 14.6%.

Which “hERG current change (%, negative = inhibition) at 10uM” value does the source give for `Cc1ccc(S(=O)(=O)N[C@@H](Cc2ccccc2)C(=O)N2CCC(C(=O)N[C@@H](CC(C)C)C(=O)O)CC2)cc1` here?
The value was 25.5%.

How did the “hERG current change (%, negative = inhibition) at 10uM” value turn out when `Cc1cc(NC(=O)CCC(=O)N(c2cccc(F)c2)C(C(=O)NC2CCCC2)c2ccccc2)no1` (stereo not drawn) was run?
The value was 26.1%.

Which “hERG current change (%, negative = inhibition) at 10uM” value does the source give for `COc1ccc(NC(=O)c2sc(NC(=O)C3CC3)nc2C)cc1` here?
The value was 0.607%.

How did the “hERG current change (%, negative = inhibition) at 10uM” value turn out when `CSCCC(NC(=O)COc1ccccc1)C(=O)N1CCN(c2ccccc2F)CC1` (stereo not drawn) was run?
Its value is -43.4%.

`Cn1c(=O)c([N+](=O)[O-])c(NCCc2ccccc2)c2ccccc21` was tested. Which “hERG current change (%, negative = inhibition) at 10uM” value did it give?
Its value is -4.42%.

`CCOC(=O)CSc1nnc(CNC(=O)c2ccc(OC)cc2)n1C1CCCCC1` was tested. Which “hERG current change (%, negative = inhibition) at 10uM” value did it give?
Its value is -8.07%.

For `CC1C/C(=N\NC(N)=S)c2cc(Cl)ccc2S1` (stereo not drawn), which “hERG current change (%, negative = inhibition) at 10uM” value is on record?
The value was 7.32%.

`Cn1cccc1C(=O)NC(=O)COC(=O)CC12CC3CC(CC(C3)C1)C2` was tested. Which “hERG current change (%, negative = inhibition) at 10uM” value did it give?
The value was 13.7%.

Which “hERG current change (%, negative = inhibition) at 10uM” value does the source give for `c1cc2c3c(cccc3c1)NC1(CCCCC1)N2` here?
The value was 8.99%.

For `CCOC(=O)C1CC(=O)c2cc(OC)c(OC)cc2C1` (stereo not drawn), which “hERG current change (%, negative = inhibition) at 10uM” value is on record?
The value was 14.5%.

`CCOC(=O)NC(=O)C(=CNNc1ncc(C(F)(F)F)cc1Cl)C(=O)NC(=O)OCC` was tested. Which “hERG current change (%, negative = inhibition) at 10uM” value did it give?
Its value is 15%.

Which “hERG current change (%, negative = inhibition) at 10uM” value does the source give for `COc1ccc(-c2nc3ccccc3c(=O)[nH]2)cc1` here?
Its value is 9.31%.

For `O=C(O)c1cnn(-c2ccccc2)c1C(F)(F)F`, which “hERG current change (%, negative = inhibition) at 10uM” value is on record?
The value was 28.8%.

How did the “hERG current change (%, negative = inhibition) at 10uM” value turn out when `O=C(CN1CCN(Cc2ccccc2Cl)C1=O)NCc1ccccn1` was run?
The value was 17.4%.

With `CCc1ccc(OCCCC(=O)NCc2ccco2)cc1` as the compound, how does the “hERG current change (%, negative = inhibition) at 10uM” value read?
The value was 1.95%.

Which “hERG current change (%, negative = inhibition) at 10uM” value does the source give for `O=C(Nc1ccccc1)C1C2/C=C\CCCCC21` (stereo not drawn) here?
Its value is 16.6%.

`C=C(C)C(=O)Nc1cccc(C2=NOC3(C2)C[C@@H](C(N)=O)N(C(=O)c2cc([N+](=O)[O-])cc([N+](=O)[O-])c2C)C3)c1` (stereo partly drawn) was tested. Which “hERG current change (%, negative = inhibition) at 10uM” value did it give?
Its value is 1.96%.

How did the “hERG current change (%, negative = inhibition) at 10uM” value turn out when `Cc1cc(=O)[nH]c(SCC(=O)NCC2CCCO2)n1` (stereo not drawn) was run?
Its value is 6.76%.

`CC1CN(C(=O)c2cc(-c3ccncc3)nc3ccccc23)CC(C)O1` (stereo not drawn) was tested. Which “hERG current change (%, negative = inhibition) at 10uM” value did it give?
The value was -8.43%.

For `Cn1cccc1C1C(C#N)=C(N)OC2=C1C(=O)CCC2` (stereo not drawn), which “hERG current change (%, negative = inhibition) at 10uM” value is on record?
The value was 14.6%.

`COCCNC(=O)c1cn(C(C)c2ccccc2F)nn1` (stereo not drawn) was tested. Which “hERG current change (%, negative = inhibition) at 10uM” value did it give?
Its value is -1.84%.

How did the “hERG current change (%, negative = inhibition) at 10uM” value turn out when `COc1cc(OC)c(/C=N/NC(=O)c2ccc([N+](=O)[O-])cc2)cc1Br` was run?
Its value is 15.4%.

Which “hERG current change (%, negative = inhibition) at 10uM” value does the source give for `COc1cccc(/C=N/NC(=O)C(=O)NCc2ccco2)c1O` here?
Its value is 4.17%.

How did the “hERG current change (%, negative = inhibition) at 10uM” value turn out when `CC1=C(C#N)C(NC(=O)C(C)(C)C)(C(F)(F)F)C(=O)N1` (stereo not drawn) was run?
Its value is 1.3%.

How did the “hERG current change (%, negative = inhibition) at 10uM” value turn out when `CCN(CC)c1ccc(NC(=O)CN2CCN(S(=O)(=O)c3cc(Cl)ccc3OC)CC2)cc1` was run?
The value was 10.1%.

`COc1ccc(NC(=O)COC(=O)CCc2ccccc2)c(OC)c1` was tested. Which “hERG current change (%, negative = inhibition) at 10uM” value did it give?
Its value is 10.6%.

With `O=C(NC(Cc1ccccc1)C(=O)O)/C(=C\c1ccc(Br)cc1)NC(=O)c1ccc(Br)o1` (stereo not drawn) as the compound, how does the “hERG current change (%, negative = inhibition) at 10uM” value read?
Its value is 13%.

How did the “hERG current change (%, negative = inhibition) at 10uM” value turn out when `CCc1ccccc1OCC(=O)OCC(=O)N1CC(=O)Nc2ccccc21` was run?
The value was 19.4%.

Which “hERG current change (%, negative = inhibition) at 10uM” value does the source give for `O=C1OC(OC(=O)c2ccccc2Br)C(N2CCOCC2)=C1Cl` (stereo not drawn) here?
Its value is -1.33%.

For `COc1ccc(CC(=O)Nc2nncs2)cc1OC`, which “hERG current change (%, negative = inhibition) at 10uM” value is on record?
The value was 3.84%.

Which “hERG current change (%, negative = inhibition) at 10uM” value does the source give for `CC1CC2(CCCCC2)Nc2c1ccc1ccccc21.Cl` (stereo not drawn) here?
Its value is 5.87%.

For `Cc1cc(C(=O)CCC(=O)N2CCN(S(=O)(=O)c3cccs3)CC2)c(C)s1`, which “hERG current change (%, negative = inhibition) at 10uM” value is on record?
The value was -34.7%.

Which “hERG current change (%, negative = inhibition) at 10uM” value does the source give for `COc1nc(NCc2cccnc2)nc(NC2CCCCC2)n1` here?
Its value is -29.8%.

For `CCOc1ccc(NC(=O)c2cccc(NC(=O)c3ccccc3)c2)cc1`, which “hERG current change (%, negative = inhibition) at 10uM” value is on record?
Its value is 2.31%.

How did the “hERG current change (%, negative = inhibition) at 10uM” value turn out when `O=C(NCC(c1cccnc1)N1CCN(c2ccccc2)CC1)OCc1ccccc1` (stereo not drawn) was run?
The value was -45.9%.

How did the “hERG current change (%, negative = inhibition) at 10uM” value turn out when `Cc1ccc(S(=O)(=O)N(CCC(=O)O)Cc2ccc(Cl)cc2)cc1` was run?
Its value is 5.13%.

How did the “hERG current change (%, negative = inhibition) at 10uM” value turn out when `COc1ccc(-c2c(C)oc3c(CN4CCN(CCO)CC4)c(O)ccc3c2=O)cc1OC` was run?
Its value is 21.9%.

With `COCCn1c(SCC(=O)NC2CCCCC2)nc2c(c1=O)SCC2` as the compound, how does the “hERG current change (%, negative = inhibition) at 10uM” value read?
Its value is -11.2%.

Which “hERG current change (%, negative = inhibition) at 10uM” value does the source give for `CC(=O)ONC(=Nc1ccccc1)c1nonc1N` here?
Its value is 15.5%.

`CN(Cc1ccccc1)C(=O)C1CCC(CNS(=O)(=O)c2cccc3cccnc23)CC1` (stereo not drawn) was tested. Which “hERG current change (%, negative = inhibition) at 10uM” value did it give?
The value was -25.8%.

`O=C(OCCN1C(=O)c2cccc3c(N4CCOCC4)ccc(c23)C1=O)c1ccccc1Cl` was tested. Which “hERG current change (%, negative = inhibition) at 10uM” value did it give?
Its value is 15.8%.

With `Nc1c(NCc2ccccc2)c2ccccc2oc1=O` as the compound, how does the “hERG current change (%, negative = inhibition) at 10uM” value read?
Its value is -3.8%.

How did the “hERG current change (%, negative = inhibition) at 10uM” value turn out when `COc1cc(C2Nc3ccc4ncccc4c3C3=C2C(=O)CCC3)cc(OC)c1OC` (stereo not drawn) was run?
The value was -26.7%.

For `Cc1cc(C(F)(F)F)nc(SCC(=O)Nc2nccs2)n1`, which “hERG current change (%, negative = inhibition) at 10uM” value is on record?
Its value is 11%.

`Cc1ccc(C)c(NC2CCCCC2NS(=O)(=O)c2ccccc2)c1` (stereo not drawn) was tested. Which “hERG current change (%, negative = inhibition) at 10uM” value did it give?
Its value is 12.9%.

Which “hERG current change (%, negative = inhibition) at 10uM” value does the source give for `Cc1ccc(CSc2nn3c(=O)c(C)nnc3s2)cc1` here?
The value was -13.9%.

`Cc1ccc(O)c(-c2cc3ccccc3[nH]2)c1` was tested. Which “hERG current change (%, negative = inhibition) at 10uM” value did it give?
Its value is -15.8%.
